SMILES strings stand for the structures. This is one part of the list. The main result of the screen is listed elsewhere. These columns were measured beside it and carry no call. Most of these compounds were active or inconclusive in the main read-out, so they are no random draw.

The assay is described as follows: beta-lactam sensitization of Mtb H37Rv, H37Rv (AID 434955).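 Note: growth measured after seven days incubation then overnight dye step; 0% = bacteria only wells and 100% = bacteria with antibiotic.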 Particulars: M. tuberculosis H37Rv growth with meropenem, percent inhibition; measured here: primary screen without meropenem; at 25 µM.
For `COCCSc1nc(N)c(NC(=O)c2ccco2)c(=O)[nH]1`, the inhibition was -5.7%. For the molecule `COc1cnc(SCc2c(Cl)cccc2Cl)nc1Cl`, the inhibition is -0.19%. Regarding `Cc1ccc(-n2ncc3c(=O)[nH]cnc32)c(C)c1`, the inhibition was -1.66%. In the case of `Cc1ccccc1NC(=O)COC(=O)Cc1cccc(C(F)(F)F)c1`, the inhibition worked out at 0.27%.

Take `CC(/C=C(\NC(=O)c1ccccc1)C(=O)N=Nc1c(O)[nH]c2ccc(C)cc12)=C\c1ccccc1`: the inhibition came to 43.7%.

In the case of `CCc1ccc(CN(C)CCc2ccccn2)cc1`, the inhibition was 0.01%. Regarding `NS(=O)(=O)c1ccc(NC(=S)NC(=O)c2ccco2)cc1`, the inhibition worked out at 6.83%. In the case of `CN(c1ccc(C(=O)Nc2nccs2)cc1)S(=O)(=O)c1ccccc1` it was 0.31%; in that of `COc1ccc(N2CCN(C(=O)CCCn3nnnc3CN3CCOCC3)C(C)C2)cc1` (stereo unspecified), -1.64%. Turning to `C/C(=N\NC(=O)c1ccccc1O)c1ccc(Br)s1`, the inhibition was 11.8%. With `COc1cc(/C=N/n2c(C3CCCCC3)n[nH]c2=S)cc(Br)c1O` the figure was 13.8%; with `COc1cccc(/C=C/c2[nH]c(=O)[nH]c(=O)c2[N+](=O)[O-])c1O`, 42.5%; with `Cc1ccccc1NC(=O)c1ccc(CN(c2ccccc2)S(=O)(=O)c2ccccc2)cc1`, -2.56%. With `CC(C)=CCC/C(C)=C/C=N/NC(=O)c1ccc([N+](=O)[O-])cc1` the figure was 35%; with `Cc1c(N(C)S(=O)(=O)c2cc(C(=O)N3CCCC3)ccc2Cl)c(=O)n(-c2ccccc2)n1C`, -8.83%. With `COc1ccc(-n2nc(C(=O)NCC(=O)NCc3ccco3)c3ccccc3c2=O)cc1`, the inhibition is -8.25%. Regarding `CCOC(=O)c1c(-c2ccccc2)n(C)c2ccc(O)cc12`, the inhibition was 2.93%. In the case of `Cc1ccccc1NC(=O)c1ccc(C)c(S(=O)(=O)Nc2cccnc2)c1` it was 7.17%. Regarding `CCOc1ccccc1C(=O)NCC(=O)OCCOc1cccc(Cl)c1`, the inhibition amounted to 6.74%. With `COc1ccc(C(=O)C2CCCN(C(=O)c3ccc(F)cc3)C2)cc1OC` (stereo unspecified), the inhibition was found to be 0.48%. In the case of `COc1ccc(OC)c(NC(=O)CSc2nc(N3CCOCC3)nc(N3CCOCC3)n2)c1`, the inhibition was -13%.

On to `S=c1[nH]nc(C2CCCCC2)n1/N=C/c1c(Cl)cccc1Cl`, for which the inhibition came out at 5.55%.

Turning to `CCOC(=O)N1CCN(c2c(F)cc3[nH]c(=S)[nH]c3c2Br)CC1`, the inhibition was 8.41%.

Turning to `CC(=O)c1cc2c(cc1NC(=O)c1cnc(C)cn1)OCO2`, the inhibition was -0.07%. For the molecule `Cc1cccc(NS(=O)(=O)c2cc(C(=O)N3CCCCCC3)ccc2C)c1`, the inhibition is -12%. On to `COc1ccc(Cc2nc3ccc(C(=O)NCCc4ccccn4)cc3o2)cc1OC`, for which the inhibition turned out to be 3.47%. For `Cc1cc2c(cc1S(=O)(=O)N1CCCC1)n(C)c(=O)c(=O)n2C`, the inhibition was -5.02%.

Turning to `O=C(Cn1ncc2c3ccccc3n(Cc3ccccc3)c2c1=O)N1CCN(c2ncccn2)CC1`, the inhibition is 5.68%. In the case of `O=C(N1CCOCC1)N1CCC(n2nnc3ccccc32)CC1`, the inhibition is -6.57%. `CC1CCCN(C(=O)C2CCN(c3ncnc4c3nc3n4CCCCC3)CC2)C1` (stereo unspecified): the inhibition came to 34.5%.

In the case of `O=C(Cc1ccccc1)NCC(=O)OCc1cccc([N+](=O)[O-])c1`, the inhibition is -4.63%. With `O=C(NCCN1CCOC1=O)C1CCC(=O)N(CCc2ccc(Cl)cc2)C1` (stereo unspecified) the figure was 0.15%. In the case of `Cn1cc(CNC(=O)C2CCC(=O)N(Cc3ccccc3F)C2)cn1` (stereo unspecified) it was 13.3%; in that of `COc1ccc(-n2cc(-c3ccccc3)c3c(NN4CCOCC4)ncnc32)cc1`, 41.9%; in that of `CN1C(C(=O)Nc2ccc(F)cc2F)=CC(c2ccco2)=NS1(=O)=O`, -4.63%. For `O=C(O)c1ccc(NC(=S)Nc2ccccc2)cc1`, the inhibition was -1.84%. In the case of `COc1ccc(CNc2oc(-c3ccccc3)nc2C#N)cc1`, the inhibition is -3.18%.

Take `COc1ccccc1C(=O)NC(=S)Nc1ccccc1N1CCCC1`: the inhibition came to 93.4%. For `CCOc1ccc2ccccc2c1/C=N\NC(=O)OC`, the inhibition is -4.84%. For `Cc1cc(C)cc(NC(=O)N2CCC(c3nc4ccccc4o3)CC2)c1`, the inhibition came out at 2.38%. Take `O=C(C1=C(O)C(=O)N(Cc2ccco2)C1c1cccc([N+](=O)[O-])c1)c1ccco1` (stereo unspecified): the inhibition worked out at 4.96%. In the case of `COC(=O)c1ccc(COc2ccccc2/C=C(\C#N)C(=O)Nc2c(C)cc(C)cc2C)cc1` it was -9.16%; in that of `COc1ccc(-c2cc3nc(C)cc(N4CC(C)CC(C)C4)n3n2)cc1` (stereo unspecified), 38.3%; in that of `CCN(CC)CCCNC(=O)c1c(O)c2ccccc2n(Cc2ccccc2)c1=O`, 32.5%.

Turning to `O=C(CSc1nnc(NC(=O)c2ccccc2[N+](=O)[O-])s1)NC1CCCC1`, the inhibition is 4.71%. Take `Cc1c(-c2ccccc2)cnc2c(C)cccc12`: the inhibition is 13.5%. Consider `Cc1ccc(S(=O)(=O)Nc2cccc3cccnc23)c([N+](=O)[O-])c1`, for which the inhibition worked out at 22.6%. In the case of `CCCN(CCC)CCCNC(=O)CS(=O)Cc1nc(-c2ccc(OC)c(OC)c2)oc1C` (stereo unspecified) it was 2.7%. Consider `Cc1nnc(SCc2cccc(Cl)c2)n(N)c1=O`, for which the inhibition stood at 49.8%.

Consider `Cc1c(C(=O)Nc2ccc(-c3nnc4n3CCCCC4)cc2)oc2c1ccc1ccccc12`, for which the inhibition was -2.1%.

As to `COc1cccc(C(=O)Nc2ccc3c(c2)C(=O)N(CC2CCCO2)C3=O)c1` (stereo unspecified), the inhibition turned out to be 6.68%. Consider `CC(C)Oc1cccc(C(=O)C2CCCN(C(=O)CCc3cnn(C)c3)C2)c1` (stereo unspecified), for which the inhibition is 0.04%. As for `Cc1cc(C(=O)Nc2ccccc2C(F)(F)F)no1`, the inhibition is -0.58%. Take `COc1ccc(C(=O)Nc2ccccc2C(N)=O)cc1`: the inhibition was -3.67%. On to `COc1ccc(OCc2nnc3n2N=C(c2ccc(Br)cc2)CS3)cc1`, for which the inhibition is -5.2%.

With `COc1ccccc1-c1ccc(=O)n(CC(=O)NC(C)(C)C)n1`, the inhibition amounted to 0.7%.

For `O=C(c1ccc2nc(Cc3cccc(Cl)c3)oc2c1)N1CCOCC1`, the inhibition is -0.75%.

With `COc1cc(C2C3CN(C)CC=C3C(C#N)=C(N)C2(C#N)C#N)ccc1OC(C)C` (stereo unspecified), the inhibition is -5.38%. As to `COc1ccc(Cl)cc1Nc1nc(-c2sc(NC(=O)c3ccccc3)nc2C)cs1`, the inhibition stood at 6.72%. For the molecule `O=C(CN(Cc1ccccc1)S(=O)(=O)c1ccc(F)cc1)NCc1cccnc1`, the inhibition was 1.7%. With `Cc1ccc(Cn2nnnc2CN2CCC(n3nnc4cc(C)ccc43)CC2)cc1` the figure was 98.2%.

Take `C[C@@H](NC(=O)c1[nH]cnc1C(=O)Nc1ccccc1)c1ccccc1`: the inhibition is 96.2%. With `COCCCNc1nc2ccccc2nc1NS(=O)(=O)c1cccc(C)c1`, the inhibition was 0%. As for `CC1(C)Cc2c(cnn2-c2ccccc2)C(NC(=O)CCc2ccncc2)C1` (stereo unspecified), the inhibition was determined as 3.15%. As for `CC(C)(C)N(Cc1ccccc1)C(=O)COC(=O)CN1C(=O)NC2(CCCC2)C1=O`, the inhibition worked out at 0.05%. Take `COc1cccc(C2=NOC(C(=O)N3CCc4ccccc4C3)C2)c1` (stereo unspecified): the inhibition was -7.31%. For the molecule `C/C(=N\NC(=O)c1c(Cl)c(C)nn1C)c1cccc(NC(=O)C2CCCC2)c1`, the inhibition is -1.26%.

For the molecule `O=C(Nc1ccc2c(c1)OCCO2)c1ccc(Cl)c(S(=O)(=O)N2CCCCC2)c1`, the inhibition was 11.4%. Consider `CSc1ccc(/C=N/NC(=O)C[n+]2ccccc2)cc1`, for which the inhibition worked out at 3.38%. In the case of `N=C1C(c2nc3ccccc3[nH]2)=C(O)CN1c1ccc(F)cc1` it was 4.39%; in that of `O=c1c2c(nc3c(-c4ccc(Cl)cc4)c[nH]n13)CCC2`, -5.07%; in that of `CC(=O)Nc1ccc(NC(=S)NC(=O)C2CC2)cc1`, 6.62%. In the case of `COc1ccc(-c2cc(C(=O)N3CCN(S(=O)(=O)c4ccc(C)cc4)CC3)[nH]n2)cc1`, the inhibition is 4.84%. Turning to `CCCc1ccc(Oc2cc(N3CCOCC3)nc(-c3ccccc3)n2)cc1`, the inhibition turned out to be 17.9%. With `Cc1cc(C(=O)Nc2ccccc2C#N)n(-c2ccccc2)n1` the figure was -10.7%. Regarding `Cc1ccc(CNC(=O)Cn2c(=O)n(CC(=O)N3CCCCC3)c(=O)c3sccc32)cc1`, the inhibition was 0.94%. In the case of `CCc1ccc(CN2CCC(n3nccc3NC(=O)C3CCCC3)CC2)cc1` it was -15.8%. Consider `CC(C)(C)CN1CCC(n2nccc2NC(=O)c2ccccc2Cl)CC1`, for which the inhibition was -3.57%. With `CCOC(=O)c1cnc(-n2nc(C)cc2C)nc1NCc1ccc2c(c1)OCO2` the figure was 84.2%; with `Cc1ccc(S(=O)(=O)/N=C(/Nc2nc(C)cc(C)n2)N2CCOCC2)cc1`, 1.52%; with `COCCN1C(=O)c2oc3cc(C)c(C)cc3c(=O)c2C1c1ccc(O)cc1` (stereo unspecified), -5.23%. As for `COc1ccc(C2C(C(C)=O)=C(C)N=c3s/c(=C\c4ccco4)c(=O)n32)c(OC)c1` (stereo unspecified), the inhibition is 6.42%. For `COc1ccc(S(=O)(=O)N(CC(=O)Nc2ccc(S(=O)(=O)N3CCOCC3)cc2)Cc2ccc(F)cc2)cc1`, the inhibition is -4.96%. As for `Cc1cccc(NC(=O)c2nc[nH]c2C(=O)N[C@@H](CC(C)C)C(=O)OCc2ccccc2)c1`, the inhibition was 37%.

As to `O=C(NC1CC1)c1ccc2c(c1)C1C3CCC(C3)C1C(c1ccccc1)N2` (stereo unspecified), the inhibition was found to be 77%. With `CCNS(=O)(=O)c1ccc(NC(=O)c2cccnc2)cc1`, the inhibition is -1.68%.

For `Cc1ccc(C)c(-n2c(-c3ccco3)n[nH]c2=S)c1`, the inhibition was 28.2%. Consider `COc1cc(NS(=O)(=O)c2ccc(NC(=O)c3ccc(Cl)cc3Cl)cc2)ncn1`, for which the inhibition turned out to be 0.49%. On to `COc1ccccc1NC(=O)COc1ccc2ccccc2c1`, for which the inhibition turned out to be 82%.

Consider `CN(C)c1nc(Nc2ccccc2)nc(N(C)C)n1`, for which the inhibition is -2.69%.

`COCC(C)N1CCC(Oc2ccc(C(=O)NCc3ccccn3)cc2)CC1` (stereo unspecified): the inhibition worked out at 3.64%. For the molecule `CC(=O)c1cccc(S(=O)(=O)N(CCCO)Cc2cc3ccc(C)cc3[nH]c2=O)c1`, the inhibition is -11.6%. `CN(CCO)c1cc(Sc2nc3ccccc3s2)c2nonc2c1[N+](=O)[O-]`: the inhibition was 98.1%. As for `COc1ccccc1/C=C/C(=O)NCC(=O)N/N=C/c1cc(Br)ccc1OC`, the inhibition was -1.26%. With `O=C(c1cc2c(s1)CCCC2)n1cccn1`, the inhibition came out at 47.9%.

Turning to `CCn1c(=NC(=O)CCS(=O)(=O)c2ccccc2)sc2cccc(OC)c21`, the inhibition is -5.62%. As for `Cc1ccc(-c2ccc(S(=O)(=O)Nc3cccnc3)cc2)cc1`, the inhibition came out at 3.19%. Consider `COc1ccc(C(=O)NNc2ccccc2)cc1OC`, for which the inhibition is 98.7%.

For the molecule `Cc1cccc(C(=O)OCC(=O)c2ccc3c(c2)OCO3)c1O`, the inhibition turned out to be 84.8%. With `Cc1ccc(C)c(OCC(=O)NC2CCCCCC2)c1` the figure was 7.8%; with `Cc1ccc(-n2nnnc2SCC(=O)Nc2ccc(N3CCN(C)CC3)cc2)c(C)c1`, 44%; with `C/C=C(\C)CN1CCC(n2nccc2NC(=O)c2ccc3c(c2)OCO3)CC1`, -5.08%. For `O=C(c1ccc2nc3ccc(Cl)cc3c(=O)n2c1)N1CCOCC1`, the inhibition was 93.8%.

With `N#C/C(=C(/O)c1cccs1)c1nc2ccccc2[nH]1`, the inhibition is -1.52%.

`CC(C)(C)c1ccccc1NC(=O)c1cccnc1`: the inhibition amounted to 0.58%.

Turning to `CCC(C)Sc1nc(O)c(Cc2ccccc2)c(=O)[nH]1` (stereo unspecified), the inhibition is -3.59%.

(Values after PubChem BioAssay AID434955 (Southern Research Specialized Biocontainment Screening …, 2010).)
